# From the supplement of paper PMC10126150
# Values marked as one replicate rest on one cluster of the flow cell; about a third of the high ones do not repeat.
# System: ATP
# Experiment: switch fluorescence ratio, 500 uM ATP over buffer (Cy3 cluster intensity, sum of 5 cycles each) (fold (ratio)); higher = stronger signal-on switching upon ATP binding; sequences stand for … in TCGTCGGCAGCGTCAGATGTGTATAAGAGACAGTTTTTTTTTTTTTTTTTTTTTTTTT…TC
# Conditions: aptamer strand: ATP DNA aptamer (quencher-CACCTGGGGGAGTATTGCGGAGGAAGG + anchor), 100 nM annealed; ATP concentration: 500 uM; one replicate
# Summary of the method: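 Cy3-labelled switching-strand clusters on a modified Illumina MiSeq flow-cell were annealed to 100 nM quencher-labelled ATP aptamer and imaged first in selection buffer, then after 15 min with 500 uM ATP at 22 °C. NaOH stripping and re-annealing separated each of five buffer/ATP cycles, and clusters outside 100-1000 RFU were excluded. The fluorescence ratio sums target-cycle Cy3 intensity over buffer-cycle Cy3 intensity per cluster and averages it per switch-domain sequence.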
# 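Further: ATP exposure 15 min at 22 °C before imaging.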
sequence,measurement,value
GAGTAGCGCT,switch fluorescence ratio,0.986
CCAAGATTGG,switch fluorescence ratio,1.01
AGGAACAACT,switch fluorescence ratio,1.02
GTCAGTTTGG,switch fluorescence ratio,0.995
TCATTGTCGT,switch fluorescence ratio,0.997
AATGGTTCT,switch fluorescence ratio,0.971
TCGTATTTA,switch fluorescence ratio,0.979
CAGTCCTTGG,switch fluorescence ratio,0.998
TGGCAACATG,switch fluorescence ratio,1.02
GCGACTAGAT,switch fluorescence ratio,1.02
GGTATAGTAT,switch fluorescence ratio,0.999
CGACATGTTG,switch fluorescence ratio,1.04
TTAAGAAGGG,switch fluorescence ratio,1
CGTTGAAGTG,switch fluorescence ratio,0.957
TTCGCACTCT,switch fluorescence ratio,1.27
AAATAAGGGT,switch fluorescence ratio,1.04
GCACCCATAC,switch fluorescence ratio,1.42
GCGGCCCCGG,switch fluorescence ratio,1.17
GGACTGGGAA,switch fluorescence ratio,0.958
TGGTCCCCTG,switch fluorescence ratio,0.99
CTTCGAAACC,switch fluorescence ratio,1.09
ATGTCATTTT,switch fluorescence ratio,1.03
ACAGTGAGGC,switch fluorescence ratio,1.03
TGGTAATCGC,switch fluorescence ratio,1.04
GATGCATTTC,switch fluorescence ratio,1.58
CATTCCAGTC,switch fluorescence ratio,1.11
CGGCGAGAGA,switch fluorescence ratio,1.01
CGTGAATAA,switch fluorescence ratio,1.15
GGCTCACCGC,switch fluorescence ratio,1.07
ATTTAGACGA,switch fluorescence ratio,0.987
AGTGAGCGGG,switch fluorescence ratio,0.979
TATGTGTAAA,switch fluorescence ratio,0.987
CTTCCGGCTG,switch fluorescence ratio,1.58
AATACTTTAA,switch fluorescence ratio,1.05
CTACAGGTGC,switch fluorescence ratio,2.51
GCGAGTCGCA,switch fluorescence ratio,1
TAAATGCTCG,switch fluorescence ratio,0.941
CCAATAGTGG,switch fluorescence ratio,0.964
GATTCTTGTA,switch fluorescence ratio,1.01
CCTTAACTT,switch fluorescence ratio,1.06
GAATAAGTAG,switch fluorescence ratio,1.01
GAGGCGATTG,switch fluorescence ratio,1.06
GACGAAACT,switch fluorescence ratio,1.1
AGACCAAGCG,switch fluorescence ratio,0.906
GATGTAGCGA,switch fluorescence ratio,1.15
CTGGGGACT,switch fluorescence ratio,0.98
GGTAGACAGG,switch fluorescence ratio,1.04
AAAATGAATA,switch fluorescence ratio,0.942
GAGGACAGGT,switch fluorescence ratio,0.999
ATAAGCTTGT,switch fluorescence ratio,1.04
GCAGGAAGAA,switch fluorescence ratio,1.01
CGATTACAGC,switch fluorescence ratio,1
GATGGTATCT,switch fluorescence ratio,0.971
AGTATTTGGG,switch fluorescence ratio,0.969
GTAAATTGCT,switch fluorescence ratio,1.03
AGATTTAGGT,switch fluorescence ratio,0.974
GTGAAGCGAC,switch fluorescence ratio,1.37
ACGCACAACT,switch fluorescence ratio,1.42
GCGTCGTTTG,switch fluorescence ratio,0.998
AGTCTTCAA,switch fluorescence ratio,1.02
AGCCAAAGTC,switch fluorescence ratio,1
TACGTTCGGC,switch fluorescence ratio,1.04
GCCGATACTT,switch fluorescence ratio,1.04
CTGATTGCCT,switch fluorescence ratio,0.999
TCGACAGATG,switch fluorescence ratio,1.06
GTATACCGT,switch fluorescence ratio,0.998
GAGACGGTGC,switch fluorescence ratio,1.04
GAGCTTCGAG,switch fluorescence ratio,1.01
ATGGGTGCAG,switch fluorescence ratio,0.978
CCTATATGC,switch fluorescence ratio,0.997
CATTGGACC,switch fluorescence ratio,1.12
TGGGGGAAG,switch fluorescence ratio,0.957
TCAAGTTGGA,switch fluorescence ratio,1.03
TATTTTGG,switch fluorescence ratio,1.04
CAGGTGCAGC,switch fluorescence ratio,1.05
TACGCCCATC,switch fluorescence ratio,1.17
ACAGGTGGCG,switch fluorescence ratio,1
AATCTCAACG,switch fluorescence ratio,0.978
ACTCGTGG,switch fluorescence ratio,0.974
TCTATCCGGT,switch fluorescence ratio,1.01
TGGCGATAAC,switch fluorescence ratio,1.81
CGCCAAAATC,switch fluorescence ratio,1.69
GGGGTCGCAG,switch fluorescence ratio,0.981
GGCGGTGGAC,switch fluorescence ratio,1.02
ACATCTTGAC,switch fluorescence ratio,1.08
ACCAAACACT,switch fluorescence ratio,1.11
AATTACAACG,switch fluorescence ratio,1.03
GCGTCCAGAG,switch fluorescence ratio,1.01
CACTTTCGGT,switch fluorescence ratio,0.965
AGCAAAAATC,switch fluorescence ratio,1.03
ACTTGCGGCC,switch fluorescence ratio,1.05
CGAATATGTT,switch fluorescence ratio,1.02
ATCATGGTTT,switch fluorescence ratio,1.03
ACGCCGGCAT,switch fluorescence ratio,1.11
CGGTTGAAGT,switch fluorescence ratio,1.01
TTTGTTCCGA,switch fluorescence ratio,1.03
TAACGTCTAG,switch fluorescence ratio,1.01
CCGAGGGGT,switch fluorescence ratio,1.14
GTGAATATAG,switch fluorescence ratio,0.964
TTGCAGGTTG,switch fluorescence ratio,1.01
TCTTATGTA,switch fluorescence ratio,0.969
TCAGTAGCAG,switch fluorescence ratio,1.47
ATTGTGTAGT,switch fluorescence ratio,1
GAAGTTATGC,switch fluorescence ratio,1.19
ATCAGTTAGT,switch fluorescence ratio,0.991
CAATGGGATC,switch fluorescence ratio,1.05
CCTGTAGAAG,switch fluorescence ratio,1.01
TCGTCGTACT,switch fluorescence ratio,1.04
CTGACTCT,switch fluorescence ratio,1.02
ACTATGCTGG,switch fluorescence ratio,1
GGGGATTGTA,switch fluorescence ratio,0.987
ATATTTACGC,switch fluorescence ratio,1.09
GTCGACAGCC,switch fluorescence ratio,0.965
ATCGCAGGTA,switch fluorescence ratio,0.962
GCTTTATCAG,switch fluorescence ratio,0.966
TAGCGGATG,switch fluorescence ratio,0.976
TGGTAGTGCG,switch fluorescence ratio,0.988
AGCTCCTAGC,switch fluorescence ratio,0.986
AGGCCAACCG,switch fluorescence ratio,1.01
GATCTGGATT,switch fluorescence ratio,1.02
TGGTGTAAGC,switch fluorescence ratio,1.03
TCTTTTTTCT,switch fluorescence ratio,1.01
ACGAAAGAGA,switch fluorescence ratio,1.02
TTTCTATCTT,switch fluorescence ratio,0.978
GTTCTTCCTG,switch fluorescence ratio,1.03
ACACTTGCAG,switch fluorescence ratio,0.986
CGTCGGAGCA,switch fluorescence ratio,1.07
TTGGACAACT,switch fluorescence ratio,1.14
TAATTTGGTA,switch fluorescence ratio,0.979
TTAACAACCG,switch fluorescence ratio,1.02
GGCCACTTGC,switch fluorescence ratio,1
TAAGCCACAC,switch fluorescence ratio,1.11
CCAGGATCCG,switch fluorescence ratio,0.99
TGCATCGGC,switch fluorescence ratio,1.18
AGGCTGAGGT,switch fluorescence ratio,0.996
CAATCGATTT,switch fluorescence ratio,1.05
TATAGTACGC,switch fluorescence ratio,1.04
CGAATTTCCA,switch fluorescence ratio,1.01
CGGTGGACTT,switch fluorescence ratio,0.977
TAAAAAGTCT,switch fluorescence ratio,1.03
GAATGCAGCT,switch fluorescence ratio,1.09
TGAAACGCCC,switch fluorescence ratio,1.15
GCGGTGAGCT,switch fluorescence ratio,0.981
GCCCAACGCG,switch fluorescence ratio,1.01
AACTTCTATG,switch fluorescence ratio,1.01
CCCAACAACA,switch fluorescence ratio,1.01
TAAATCGTTA,switch fluorescence ratio,1.08
GGGGTCGATA,switch fluorescence ratio,0.978
GACTGAACAT,switch fluorescence ratio,1.14
ATTTGTTGA,switch fluorescence ratio,1
AACGAGTTTC,switch fluorescence ratio,1.01
CACGACTCAC,switch fluorescence ratio,1.39
ATCTCTGCCT,switch fluorescence ratio,1.07
AAGTGCCCGA,switch fluorescence ratio,0.967
